For orientation: % Inhibition means the relative decrease from the control value, in per cent.

Among all 150,000 compounds or so, about 540 (0.36%) showed an effect of 50% or more. Some of the results follow.

The assay concerns Plasmodium falciparum. The experiment in a line: Primary screen in NF54 nanoGlo assay, in single point, at 2uM, 72h; a lower Z score goes with more inhibition. Type of assay: functional, Erythrocyte. As to conditions: timepoint 72 hour.
Turning to `Cc1nc2cc(NC(=O)c3cccc4ccccc34)ccc2o1`, the “% Inhibition” value is recorded as -9% and the Z score worked out at 1.04.
As to `O=C([C@@H]1NCCc2ccccc21)N1CCC(F)(F)CC1`, the “% Inhibition” value is 10% and the Z score was -1.14.
On to `Cn1cc(CC(=O)NCc2ccccc2Cl)c2cccnc21`, for which the “% Inhibition” value is reported as -10% and the Z score worked out at 1.14.
For `O=C(Nc1ccc(Cl)cc1)c1cnn2c1NCC[C@H]2C(F)(F)F`, in that order: -5% and 0.96.
The corresponding values for `CCOc1cccc(CNC(=O)[C@H]2CCN(c3cn[nH]c(=O)c3)C2)c1` are -15% and 2.12.
For `O=C(NCCc1nccs1)c1n[nH]c2c1CCc1ccccc1-2`, in that order: -9% and 1.37.
Take `C[C@H](NC1(c2ccccc2Br)CC1)c1cnccn1`: the “% Inhibition” value is listed as -11% and the Z score stood at 1.57.
The corresponding values for `O=C(C[C@H]1CCCCN(Cc2ccccc2)C1=O)NCc1ccccc1` are -7% and 1.27.
For `CS(=O)(=O)N1CCC(CNC(=O)NC[C@H]2CCCc3ccccc32)CC1`, in that order: -7% and 1.04.
As for `Cc1nsc(N2CCc3c(F)cc(F)cc3C2)n1`, the “% Inhibition” value is listed as -10% and the Z score is 0.96.
The corresponding values for `Cc1ccc(C(=O)NCc2ccn3ccnc3c2)c(Br)c1` are -1% and 0.08.
Take `O=C(Cc1cccs1)N1CC(F)(F)C[C@H]1c1nncn1CC1CC1`: the “% Inhibition” value is listed as -6% and the Z score is recorded as 0.78.
For the molecule `COc1ccc(-c2cc3c(=O)n(CC(=O)N4CCN(C(=O)c5ccco5)CC4)nc(C)n3n2)cc1`, the “% Inhibition” value is reported as -10% and the Z score was 1.44.
The corresponding values for `CC1CN2C(=O)CN(C(=O)Nc3ccc(F)c(F)c3F)CC2c2ccccc21` (stereo unspecified) are -13% and 1.8.
For `COc1ccccc1CC(=O)NCc1nnc2n1CCC2`, in that order: -13% and 1.32.
For `C[C@]1(C(=O)N2CCN(C/C=C/c3ccccc3)CC2)CC1(Cl)Cl`, in that order: -13% and 1.46.
With `O=C(Cn1nc2c3sc(N4CCCC4)nc3ncn2c1=O)NCc1ccccc1`, the “% Inhibition” value is -7% and the Z score turned out to be 1.14.
The corresponding values for `CC[C@@H](C(=O)n1nc(-c2ccc(F)cc2)nc1N)c1ccccc1` are -5% and 0.77.
The corresponding values for `CC(C)c1ccnc(NCCCCN2CCCC2)n1` are 5% and -0.99.
For `CC(C)c1nc(C2CCN(C(=O)c3cc(N4CCNC(=O)C4)ccn3)CC2)no1`, in that order: -4% and 0.47.
Turning to `Cn1cccc1C1=NN(C(=O)CN(CCN2CCOCC2)C(=O)c2ccccc2Cl)[C@H](c2ccc(Cl)cc2)C1`, the “% Inhibition” value is on record as -14% and the Z score is on record as 2.23.
For `COCCCn1c(C)cc(C(=O)N2CC[C@@]3(COC)CN(S(C)(=O)=O)C[C@H]3C2)c1C`, the “% Inhibition” value was -7% and the Z score stood at 0.85.
For `Cn1cc(CCCNC(=O)C[C@H]2CCCOC2)cn1`, the “% Inhibition” value is -15% and the Z score was 1.88.

The record behind these values is ChEMBL document CHEMBL4888484, “Replenishing the malaria drug discovery pipeline: Screening and hit evaluation of the MMV Hit Generation Library 1 (HGL1) against asexual blood stage Plasmodium falciparum ,using a nano luciferase reporter read-out” (2022).
